From PubChem BioAssay AID1347165 (National Center for Advancing Translational Sciences (NCATS), 2019)
Hit rate of the full screen: of about 220,000 compounds, about 5,700 (2.6%) were called active. Inconclusive means that the source gave no clear call. Such entries were picked first, then a sample of the others. Calls come from the whole dose curve; as a rule, active = well fitted inhibition curve with a large enough effect; inconclusive = small, poorly fitted or top-dose-only effect; inactive = no such curve, though single readings can be large or run the other way. Where the call is inconclusive, the potency comes from a doubtful curve fit.

Each compound was assayed against Lysine-specific demethylase 5B (Homo sapiens) (UniProt Q9UGL1) (assay: Primary screen for KDM5B Histone Demethylases FDH-coupled qHTS). Conditions: FDH-coupled NADH fluorescence (FDH is formaldehyde dehydrogenase); activity change, negative = inhibition: at 57.7 µM (top of the series) unless noted.
Summary of the method: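 qHTS format, multiple compound concentrations. Buffer 50 mM HEPES pH 7.5/0.01% Tween-20; 200 nM KDM5BΔAP final; 10 min compound preincubation; substrate-mix levels 12.5 µM peptide, 25 µM α-KG, 0.25 mM NAD⁺; 30 min RT; ΔRFU.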
Note: nearly all actives have a fitted effect of over 70% in size.
Potency is the fitted concentration of half-maximal effect; tags give direction and shape of the fitted curve.
Throughout, for activity change, negative = inhibition: 0% is about no effect.

UniProt Q9UGL1, sequence (Q9UGL1 whole entry, looked up): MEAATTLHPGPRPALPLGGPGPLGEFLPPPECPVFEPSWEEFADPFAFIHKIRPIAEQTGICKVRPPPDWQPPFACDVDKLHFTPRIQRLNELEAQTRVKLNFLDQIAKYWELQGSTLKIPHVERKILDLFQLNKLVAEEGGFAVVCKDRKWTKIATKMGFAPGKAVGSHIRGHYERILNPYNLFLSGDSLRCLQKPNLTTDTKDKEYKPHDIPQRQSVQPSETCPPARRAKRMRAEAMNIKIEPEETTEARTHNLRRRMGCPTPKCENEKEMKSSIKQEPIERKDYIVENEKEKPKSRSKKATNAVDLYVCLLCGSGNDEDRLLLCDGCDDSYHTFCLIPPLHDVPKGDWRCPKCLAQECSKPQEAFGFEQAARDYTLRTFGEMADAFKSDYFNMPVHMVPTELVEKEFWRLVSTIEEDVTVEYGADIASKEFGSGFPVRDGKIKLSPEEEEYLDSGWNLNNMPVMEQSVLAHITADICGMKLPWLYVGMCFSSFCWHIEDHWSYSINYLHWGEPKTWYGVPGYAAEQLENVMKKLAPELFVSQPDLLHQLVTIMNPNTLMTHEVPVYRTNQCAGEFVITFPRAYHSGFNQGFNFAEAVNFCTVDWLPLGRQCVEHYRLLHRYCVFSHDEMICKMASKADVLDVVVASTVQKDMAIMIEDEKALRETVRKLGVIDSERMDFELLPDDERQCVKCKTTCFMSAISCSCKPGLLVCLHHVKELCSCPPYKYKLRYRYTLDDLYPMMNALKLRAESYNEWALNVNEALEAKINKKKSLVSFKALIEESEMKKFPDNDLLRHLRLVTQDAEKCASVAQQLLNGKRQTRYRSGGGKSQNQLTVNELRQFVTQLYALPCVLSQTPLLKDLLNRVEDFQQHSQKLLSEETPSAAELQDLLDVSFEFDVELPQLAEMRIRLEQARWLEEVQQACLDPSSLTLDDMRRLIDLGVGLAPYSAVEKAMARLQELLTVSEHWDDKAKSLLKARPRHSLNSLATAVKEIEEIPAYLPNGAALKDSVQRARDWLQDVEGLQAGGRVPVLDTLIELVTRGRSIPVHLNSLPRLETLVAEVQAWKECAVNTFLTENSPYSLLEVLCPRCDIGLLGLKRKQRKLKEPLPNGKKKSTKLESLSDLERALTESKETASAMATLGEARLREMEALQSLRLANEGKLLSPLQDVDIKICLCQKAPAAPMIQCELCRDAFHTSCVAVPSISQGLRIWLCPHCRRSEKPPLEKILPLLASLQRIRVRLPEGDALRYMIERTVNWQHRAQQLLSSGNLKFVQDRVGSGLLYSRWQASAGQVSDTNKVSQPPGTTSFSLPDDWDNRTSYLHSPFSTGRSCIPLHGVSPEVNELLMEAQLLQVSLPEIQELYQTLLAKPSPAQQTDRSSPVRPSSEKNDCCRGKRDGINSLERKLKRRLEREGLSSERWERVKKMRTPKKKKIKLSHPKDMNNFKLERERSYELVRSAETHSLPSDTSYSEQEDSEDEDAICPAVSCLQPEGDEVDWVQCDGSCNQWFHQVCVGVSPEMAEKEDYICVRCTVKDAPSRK

SMILES | Potency | activity change, negative = inhibition
CC(C)CN1C(=O)C(C)(C)[S+](=O)([O-])[C@@H]2CN(c3ccc(OC(F)(F)F)cc3)C[C@@H]21 | inconclusive: 25.1 µM [inhibitor, single point] | 
C[S+](=O)([O-])c1ccc(-c2nc(C(=O)N3CCOCC3)n3ccncc23)cc1 | inconclusive: 11.2 µM [inhibitor, full curve, poor fit] | 
Cc1cc2c(cc1C)NC(CC(=O)Nc1ccccc1SC(F)(F)F)C(=O)N2 (configuration not stated) | inconclusive: 25.1 µM [inhibitor, partial curve, poor fit] | 
Cc1ccnc(NC(=O)c2cc(C)nc3ccccc23)c1 |  | inactive: 27.3%
CC(C)N1C[C@@H]2C[C@H]1C(=O)N(CC1CC1)c1ccccc1O2 | inconclusive: 35.5 µM [inhibitor, partial curve] | 
Cc1ncccc1OC1(C(=O)N2CCCC2c2nc(C(C)C)no2)CCNCC1 (configuration not stated) |  | inactive: -23.3%
CCOc1ccc(CNCc2c(C(=O)O)c(C)n(Cc3ccccc3Cl)c2C)cc1 |  | inactive: 5.68%
O=C(NC1CCc2nn(CC3CC3)c(=O)n2CC1)c1n[nH]c2ccccc12 (configuration not stated) | active: 28.2 µM | 
CNc1nc(N2C[C@H]3CN(CCCOC)C[C@@]3(C(=O)O)C2)ncc1F | inconclusive: 20 µM [inhibitor, partial curve, poor fit] | 
CC1c2cc3c(cc2CCN1S(=O)(=O)c1ccc(Cl)c(C(F)(F)F)c1)OCCCO3 (configuration not stated) |  | inactive: -16.4%
COc1cccc(CNC(=O)CN2C(=O)CSc3c2c(C)nn3-c2ccccc2)c1 |  | inactive: 7.79%
CCCc1nnc(NC(=O)c2cc(=O)c3ccc(C)c(C)c3o2)s1 |  | inactive: 17%
Cc1ccc(-n2c(=O)c3ccc(C(=O)NCc4ccccc4Cl)cc3n(CC(=O)Nc3cccc(F)c3)c2=O)cc1 | inconclusive: 10 µM [inhibitor, partial curve, poor fit] | 
COc1ccc2c(C)c(CCC(=O)Nc3cc(C)ccc3F)c(=O)oc2c1 | inconclusive: 28.2 µM [inhibitor, partial curve, poor fit] | 
CC(C)(C)OC(=O)Nc1ccc(C(=O)NCC(c2ccco2)N2CCCCC2)cc1 (configuration not stated) |  | inactive: -1.19%
O=C(O)c1nccnc1C(=O)NCc1csc2ccc(Cl)cc12 | inconclusive: 28.2 µM [inhibitor, single point] | 
CCN1c2cc(C(N)=O)ccc2C(=O)N2CCCCCC21 (configuration not stated) | inconclusive: 28.2 µM [inhibitor, partial curve, poor fit] | 
COc1ccc(S(=O)(=O)c2c(Nc3ccc(C)cc3)sc(C(=O)c3ccc4c(c3)OCO4)c2N)cc1 | inconclusive: 15.8 µM [inhibitor, partial curve, poor fit] | 
N#Cc1nc(-c2ccco2)oc1N1CCN(CC(=O)N2CCNC2=O)CC1 | inconclusive: 22.4 µM [inhibitor, partial curve, poor fit] | 
O=C(NCc1coc(-c2cccs2)n1)C1CCCN(C(=O)c2ccc(F)cc2)C1 (configuration not stated) | inconclusive: 25.1 µM [inhibitor, partial curve, poor fit] | 
COc1ccc(C2=CC(c3cccc(C)c3)n3nnnc3N2)cc1 (configuration not stated) | inconclusive: 35.5 µM [inhibitor, partial curve, poor fit] | 

SMILES | Potency | activity change, negative = inhibition
COc1cc(NC(=O)Cn2nc(-c3ccc(C)c(C)c3)ccc2=O)cc(OC)c1 | inconclusive: 35.5 µM [inhibitor, single point] | 
CCCC(C)NC(=O)CCc1ccc(-c2ccc(OC)cc2)o1 (configuration not stated) | inconclusive: 20 µM [inhibitor, partial curve, poor fit] | 
O=C(NC1CCc2n[nH]c(=O)n2CC1)c1ccc(Br)o1 (configuration not stated) |  | inactive: 51%
Cc1nc(N2CCCC2)cc(N2CCN(C(=O)c3ccc(C(F)(F)F)cc3)CC2)n1 |  | inactive: 1.13%
COc1cccc(C(=O)Nc2ccc3nc(N4CCC(C)CC4)cc(C)c3c2)c1 | inconclusive: 31.6 µM [inhibitor, partial curve, poor fit] | 
CCc1ccc(Nc2ccc3cc(S(=O)(=O)N4CCCC4)ccc3n2)cc1 | inconclusive: 28.2 µM [inhibitor, partial curve, poor fit] | 
Cc1ccc(-c2ncc(NC(=O)c3ccc(F)c(F)c3)cn2)cc1 | inconclusive: 22.4 µM [inhibitor, partial curve] | 
Cc1ccc(C(C)C)c(OCCCCN(C)C)c1 | inconclusive: 12.6 µM [inhibitor, partial curve, poor fit] | 
CN1CCOc2c(C(=O)NCc3cnn(C)c3)cc(-c3ccccc3O)cc21 | active: 28.2 µM | 
Cc1ccc2nc(/C(C#N)=C/c3cc(Br)c(O)c(Br)c3)[nH]c2c1 |  | inactive: 2.45%
Cc1ccc(CN2C(=O)OC(c3cccc(NC(=O)c4ccc(C)cc4)c3)C2C(=O)NCC(C)C)cc1 (configuration not stated) | inconclusive: 31.6 µM [inhibitor, partial curve, poor fit] | 
COc1ccc(C(=O)N[C@@H]2CN(c3ccccn3)C[C@H]2CN(C)C)c(OC)c1 | active: 28.2 µM | 
Cc1cc(C)c2oc(C(=O)N(Cc3cccs3)C3CCS(=O)(=O)C3)cc(=O)c2c1 (configuration not stated) | inconclusive: 22.4 µM [inhibitor, partial curve, poor fit] | 
CCN1CCC(CC(=O)N2CCCC3(C=Cc4ccccc4O3)CC2)CC1 (configuration not stated) |  | inactive: 1.56%
Cn1ncc2c(-c3ccc([S+](C)(=O)[O-])cc3)cc(C(=O)NCc3ccc(F)cc3)nc21 | active: 79.4 µM | 
Cc1cnc(CCNC(=O)c2n[nH]c3ccccc23)n1C1CC1 | inconclusive: 12.6 µM [inhibitor, partial curve, poor fit] | 
COc1ccccc1C1CC(=O)N(Cc2cccc(Cl)c2)c2c1c(C)nn2-c1nc(C)cc(C)n1 (configuration not stated) |  | inactive: -9.36%
CC(C)CNC(=O)C1(CCO)CCN(Cc2ccccc2)C1 (configuration not stated) |  | inactive: -19%
COc1ccc(C2=C(C)C(=O)N(Cc3ccc(C(=O)Nc4cc(C)ccc4C)cc3)S2(=O)=O)cc1 | inconclusive: 31.6 µM [inhibitor, partial curve, poor fit] | 
CCCOc1ccc(CN2C[C@@H](CO)[C@H](c3ccncc3)C2)cc1 | inconclusive: 15.8 µM [inhibitor, single point] | 
Cc1cccc(CN2CC[C@@H]3OCC(=O)N(Cc4ccccc4)[C@H]3CC2)c1 | inconclusive: 15.8 µM [inhibitor, partial curve, poor fit] | 
